IC50 is the fitted dose that halves viability relative to control wells, and lower means more sensitive; where the fit passes the top or lowest dose, that dose stands as a limit. AUC sums up the same curve from the lowest dose to the 256-fold higher top dose; it is 1 without any effect and falls as sensitivity rises. For some assays here: The top dose, if marked as inferred, was calculated from the reported fits.
What was measured:
Test in all cases: Viability of human cancer cell lines after 72 h of drug (GDSC screen)
[1] = compound: C=CC(=O)Nc1cc(NC(=O)c2ccc(C)c(NC(=O)c3ccno3)c2)cc(C(F)(F)F)c1 [QL-XI-92]; conditions: top dose 10.24 µM; top dose inferred
Description: (§1)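 Human cancer cell lines in 384-well plates, medium with 10% serum, drug for 72 h over a 256-fold dose range (nine 2-fold or five 4-fold steps up to the top dose). Adherent lines were fixed and stained with the nucleic acid dye Syto60, suspension lines read with resazurin; signal relative to control wells, capped at 0 and 100%. One two-parameter sigmoid per drug and line, fitted in a mixed model over all curves with the slope shared within a line.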

[2] = compound: CNCc1ccc(-c2[nH]c3cc(F)cc4c3c2CCNC4=O)cc1 [AG-014699]; conditions: top dose 5 µM; top dose inferred
Description: as §1

[3] = compound: COc1cc2ncnc(Nc3cc(Br)c(O)c(Br)c3)c2cc1OC [WHI-P97]; conditions: top dose 10.24 µM; top dose inferred
Description: as §1

[4] = compound: N[C@@H](CSC(c1ccccc1)(c1ccccc1)c1ccccc1)C(=O)O [S-Trityl-L-cysteine]; conditions: top dose 5.12 µM; top dose inferred
Description: as §1

[5] = compound: CCC1=C[C@@H]2CN(C1)Cc1c([nH]c3ccccc13)[C@@](C(=O)OC)(c1cc3c(cc1OC)N(C)[C@H]1[C@@](O)(C(=O)OC)[C@H](OC(C)=O)[C@]4(CC)C=CCN5CC[C@]31[C@@H]54)C2 [Vinorelbine]; conditions: top dose 0.064 µM; top dose inferred
Description: as §1

[6] = compound: O=c1cc(N2CCOCC2)oc2c(-c3cccc4c3sc3ccccc34)cccc12 [NU-7441]; conditions: top dose 2 µM; top dose inferred
Description: as §1

[7] = compound: COc1cc2nccc(Oc3ccc(NC(=O)C4(C(=O)Nc5ccc(F)cc5)CC4)cc3)c2cc1OC [XL-184]; conditions: top dose 5.12 µM; top dose inferred
Description: as §1

[8] = compound: C#Cc1cccc(Nc2ncnc3cc(OCCOC)c(OCCOC)cc23)c1 [Erlotinib]; conditions: top dose 2 µM
Description: as §1

[9] = compound: O=c1cc(CN2CCOCC2)occ1OCCCCCSc1ccnc2cc(C(F)(F)F)ccc12 [EHT 1864]; conditions: top dose 10 µM; top dose inferred
Description: as §1

[10] = compound: COc1cc2ncnc(Nc3ccc(F)c(Cl)c3)c2cc1OCCCN1CCOCC1 [Gefitinib]; conditions: top dose 0.5 µM
Description: as §1

[11] = compound: N=C(N)NC(=N)NCCc1ccccc1 [Phenformin]; conditions: top dose 4000 µM; top dose inferred
Description: as §1

NCI-SNU-5 (stomach, suspension)
AUC [1]: 0.989 | IC50 [1]: > 10.2 µM | AUC [2]: 0.944 | IC50 [2]: > 5 µM | AUC [3]: 0.989 | IC50 [3]: > 10.2 µM | AUC [4]: 0.793 | IC50 [4]: 2.37 µM | AUC [5]: 0.847 | IC50 [5]: 0.0482 µM | AUC [6]: 0.983 | IC50 [6]: > 2 µM | AUC [7]: 0.617 | IC50 [7]: 0.676 µM | AUC [8]: 0.987 | IC50 [8]: > 2 µM | AUC [9]: 0.982 | IC50 [9]: > 10 µM | AUC [10]: 0.987 | IC50 [10]: > 0.5 µM | AUC [11]: 0.748 | IC50 [11]: 1300 µM

NOMO-1 (acute myeloid leukaemia, suspension)
AUC [1]: 0.937 | IC50 [1]: > 10.2 µM | AUC [2]: 0.961 | IC50 [2]: > 5 µM | AUC [3]: 0.897 | IC50 [3]: > 10.2 µM | AUC [4]: 0.725 | IC50 [4]: 1.54 µM | AUC [5]: 0.663 | IC50 [5]: 0.0122 µM | AUC [6]: 0.836 | IC50 [6]: 1.6 µM | AUC [7]: 0.82 | IC50 [7]: 3.48 µM | AUC [8]: 0.98 | IC50 [8]: > 2 µM | AUC [9]: 0.942 | IC50 [9]: > 10 µM | AUC [10]: 0.927 | IC50 [10]: > 0.5 µM | AUC [11]: 0.498 | IC50 [11]: 246 µM

OCI-M1 (acute myeloid leukaemia, suspension)
AUC [1]: 0.875 | IC50 [1]: 6.17 µM | AUC [2]: 0.994 | IC50 [2]: > 5 µM | AUC [3]: 0.966 | IC50 [3]: > 10.2 µM | AUC [4]: 0.729 | IC50 [4]: 1.18 µM | AUC [5]: 0.759 | IC50 [5]: 0.0177 µM | AUC [6]: 0.988 | IC50 [6]: > 2 µM | AUC [7]: 0.975 | IC50 [7]: > 5.12 µM | AUC [8]: 0.995 | IC50 [8]: > 2 µM | AUC [9]: 0.957 | IC50 [9]: > 10 µM | AUC [10]: 0.994 | IC50 [10]: > 0.5 µM | AUC [11]: 0.36 | IC50 [11]: 114 µM

OCUB-M (breast, adherent)
AUC [1]: 0.787 | IC50 [1]: 3.82 µM | AUC [2]: 0.968 | IC50 [2]: > 5 µM | AUC [3]: 0.976 | IC50 [3]: > 10.2 µM | AUC [4]: 0.643 | IC50 [4]: 0.748 µM | AUC [5]: 0.421 | IC50 [5]: 0.0025 µM | AUC [6]: 0.989 | IC50 [6]: > 2 µM | AUC [7]: 0.945 | IC50 [7]: > 5.12 µM | AUC [8]: 0.99 | IC50 [8]: > 2 µM | AUC [9]: 0.805 | IC50 [9]: 4.25 µM | AUC [10]: 0.978 | IC50 [10]: > 0.5 µM | AUC [11]: 0.181 | IC50 [11]: 33.1 µM

OPM-2 (myeloma, suspension)
AUC [1]: 0.946 | IC50 [1]: > 10.2 µM | AUC [2]: 0.994 | IC50 [2]: > 5 µM | AUC [3]: 0.96 | IC50 [3]: > 10.2 µM | AUC [4]: 0.781 | IC50 [4]: 1.73 µM | AUC [5]: 0.556 | IC50 [5]: 0.00552 µM | AUC [6]: 0.994 | IC50 [6]: > 2 µM | AUC [7]: 0.936 | IC50 [7]: > 5.12 µM | AUC [8]: 0.993 | IC50 [8]: > 2 µM | AUC [9]: 0.93 | IC50 [9]: > 10 µM | AUC [10]: 0.994 | IC50 [10]: > 0.5 µM | AUC [11]: 0.874 | IC50 [11]: 2710 µM

— the supplement of paper PMC4967469
